16 molecules from PubChem BioAssay AID1745853 (National Center for Advancing Translational Sciences (NCATS), 2022) can be followed below.

Some of the results follow. These are further read-outs of the screen, such as a control signal, another cell line or another target. No call is given for them.

What all share (test): Primary Screen for Target Class Profiling of Small Molecule Inhibitors of Methyltransferases
Test [1] deals with Glycine N-methyltransferase (Homo sapiens) (UniProt Q14749). Conditions: purified enzyme, MTase-Glo SAH luminescence; measured here: GNMT inhibition; at 40 µM; stronger effect = lower value. The text has this: (§1) PI: Matthew D. Hall Ph.D. and Quinlin M. Hanson Ph.D.
(§2) National Center for Advancing Translational Sciences (NCATS)
(§3) National Institute of Health (NIH), Rockville, MD
(§4) Target class profiling (TCP) is a chemical biology approach amenable to investigating understudied biological targets. TCP is achieved by developing a generalizable assay platform and applying it to screen a curated set of compound libraries against representative members of a target class. Small molecule methyltransferases (SMMTase) are a subclass of methyltransferase that act on metabolites to modulate signaling pathways, metabolize xenobiotics, or balance the available methyl pool. We screened four curated libraries totaling 27,574 unique compounds against the SMMTases nicotinamide N-methyltransferase (NNMT), phenylethanolamine N-methyltransferase (PNMT), histamine N-methyltransferase (HNMT), glycine N-methyltransferase (GNMT), catechol O-methyltransferase (COMT), and guanidinoacetate N-methyltransferase (GAMT). The data generated by this TCP can be leveraged for informed tool molecule development. For example, in the associated publication we identified a chemotype of HNMT-selective inhibitors. Additionally, we identified a putative SMMTase-selective inhibitor with potential as a tool molecule for studying broader methyltransferase biology.
(§5) High-through put screening assays were developed at the National Center for Advancing Translational Science (NCATS) for the enzymes NNMT, PNMT, HNMT, GNMT, COMT, and GAMT. Enzymatic activity was measured as a function of SAM cofactor conversion using the MTase Glo kit (Promega) for all enzymes. All assays were performed in 1536-well format with substrates and SAM concentrations at KM values. Enzyme concentration and assay timing were optimized for 10-20% SAM conversion. Initial screening of 27,574 compounds was done as single-point assays using the highest compound concentration (40 uM). […] These compounds were replated in 11-point dose response and assayed against NNMT, PNMT, HNMT, GNMT, COMT, GAMT, and a counter-assay. The IC50 and efficacy (maximal response) values were determined for each dose-response curve. These values are also accounted for in the area under the curve (AUC) values.
(§6) PROTOCOL TABLE (as described by Inglese J, Shamu CE and Guy RK. 2007)
(§7) SEQUENCE No. (e.g., 1, 2, 3, etc.); […] (e.g., Cells, Incubation, Reagent, etc.); VALUE; DESCRIPTION.
(§8) 1; Reagent; 2 uL; SMMTase Enzyme (2x) in reaction buffer, columns 1- 48.
(§9) 2; Reagent; 1 uL; SAM (4x) in reaction buffer, columns 1-48.
(§10) 3; Controls; 23 nL; DMSO in column 4; sinefungin in DMSO (0 uM - 40 uM) in 7-point 1:2 dilution series (n = 2) in column 2.
(§11) 4; Compounds; 23 nL; Columns 5-48.
(§12) 5; Reagent; 1 uL; Substrate (4x) in reaction buffer, columns 2-48.
(§13) 6; Time; 20-30 min; Incubation.
(§14) 7; Reagent; 1 uL; MTase-Glo reagent (5X), columns 1-48.
(§15) 8; Time; 30 min; Incubation.
(§16) 9; Reagent; 5 uL; MTase-Glo Detection reagent, columns 1-48.
(§17) 10; Time; 30 min; Incubation, luminescence evolution.
(§18) 11; Detection; Luminescence; ViewLux uHTS Microplate Imager (PerkinElmer).
(§19) NOTES (numbers refer to Sequence numbers above)
(§20) 1, 2, 5. White Medium Binding Greiner 1536-well plates (Cat #789175-F, Greiner Bio-One, Monroe, NC); Reaction buffer: 50 mM Tris, pH 8.0, 3 mM MgCl2, 1 mM EDTA, 50 mM NaCl, 1 mM DTT, and 0.1 mg/mL BSA. Evaporation was prevented by covering assay plates with metal lids containing holes to allow gas diffusion.
(§21) 1. Six SMMTase were profiled: HNMT, GNMT, PNMT, COMT, NNMT, GAMT
(§22) 5. The corresponding substrate was used for each enzyme: HNMT - 5.3 uM Histamine; GNMT - >500 uM Glycine; PNMT - 16.2 uM Norephinephrine; COMT - 13.7 uM Norephinephrine; NNMT - 3.8 uM Nicotinamide; GAMT - 2.5 uM Guanidinoacetate.6, 8, 10. Room temperature
(§23) 6. Final reaction conditions: 10 nM COMT, 5 uM SAM, 15 uM norepinephrine, 50 mM Tris, pH 8.0, 3 mM MgCl2, 1 mM EDTA, 50 mM NaCl, 1 mM DTT, and 0.1 mg/mL BSA; refer to tables 2 and S1 for specific timing.
8. […]

In test [2] the target is Guanidinoacetate N-methyltransferase (Homo sapiens) (UniProt Q14353). Conditions: purified enzyme, MTase-Glo SAH luminescence; measured here: GAMT inhibition; at 40 µM; stronger effect = lower value.
Description: as §1, §2, §3, §4, §5, §6, §7, §8, §9, §10, §11, §12, §13, §14, §15, §16, §17, §18, §19, §20, §21, §22, §23
8. […]

In test [3] the target is Histamine N-methyltransferase (Homo sapiens) (UniProt P50135). To be noted: purified enzyme, MTase-Glo SAH luminescence; measured here: HNMT inhibition; at 40 µM; stronger effect = lower value.
Description: as §1, §2, §3, §4, §5, §6, §7, §8, §9, §10, §11, §12, §13, §14, §15, §16, §17, §18, §19, §20, §21, §22, §23
8. […]

Test [4] concerns the target Nicotinamide N-methyltransferase (Homo sapiens) (UniProt P40261). To be noted: purified enzyme, MTase-Glo SAH luminescence; measured here: NNMT inhibition; at 40 µM; stronger effect = lower value.
Description: as §1, §2, §3, §4, §5, §6, §7, §8, §9, §10, §11, §12, §13, §14, §15, §16, §17, §18, §19, §20, §21, §22, §23
8. […]

The target of test [5] is Phenylethanolamine N-methyltransferase (Homo sapiens) (UniProt P11086). Conditions: purified enzyme, MTase-Glo SAH luminescence; measured here: PNMT inhibition; at 40 µM; stronger effect = lower value.
Description: as §1, §2, §3, §4, §5, §6, §7, §8, §9, §10, §11, §12, §13, §14, §15, §16, §17, §18, §19, §20, §21, §22, §23
8. […]
On the % scale 0 is the no-effect control and ±100 the full control effect.

On to `O=C(O)Cc1c[nH]c2ccc(O)cc12`, for which the activity change, negative = inhibition was -19.1% in test [1]; 2.92% in test [2]; -0.368% in test [3]; -4.48% in test [4]; 2.71% in test [5].
Take `CC1(C(=O)NC2CCCC2)Cn2cnc(C(=O)NCCc3ccco3)c2C(=O)N1C1CC1` (stereo unspecified): the activity change, negative = inhibition came out at 3.85% in test [1]; 1.95% in test [2]; 5.36% in test [3]; 1.58% in test [4]; 3.78% in test [5].
For `CC(C)C(=O)N1CCCCCCNC(=O)[C@@H]2C[C@@H](C(=O)NCCc3c[nH]c4ccccc34)C[C@@H]21` the same measures were -2.7%, -6.37%, -1.74%, -6.6% and -3.22%.
With `COc1cccc(C(=O)Cn2nc3n(C)c(=O)c4ccc(C(=O)NC5CCCCC5)cc4n3c2=O)c1`, the activity change, negative = inhibition in test [1] was -0.299%; in test [2], 4.07%; in test [3] it was 2.6%; in test [4] it was -1.24%; in test [5] it was 0.331%.
As for `CC(C)NC(=O)CSc1nnc2n(Cc3ccc(F)cc3)c(=O)c3ccccc3n12`, the activity change, negative = inhibition in test [1] was -0.34%; in test [2], 0%; in test [3] it was 7.5%; in test [4] it was -3.8%; in test [5], 2.18%.
With `CCCOc1ccc(-c2nc(OC)c3ccccc3n2)cc1`, the activity change, negative = inhibition is -1.98% in test [1]; -1.3% in test [2]; 3.37% in test [3]; -13.9% in test [4]; -7.51% in test [5].
For `COc1cc2c(Oc3ccc(NC(=O)C4(C(=O)Nc5ccc(F)cc5)CC4)cc3F)ccnc2cc1OCCCN1CCOCC1` the same measures were -3.3%, 16.4%, 6.22%, -2.23% and 6.73%.
With `CC(=O)OC12CC(C)C(O)C1/C=C(/COC1OC(CO)C(O)C(O)C1O)CCC1C(/C=C(\C)C2=O)C1(C)C` (stereo unspecified), the activity change, negative = inhibition in test [1] is 0%; in test [2] it was 2.91%; in test [3], 9.58%; in test [4], -7.85%; in test [5], -1.89%.
For `O=C(Nc1ccc(F)cc1)c1cc2cccnn2n1`, the activity change, negative = inhibition in test [1] was -14.6%; in test [2], -15.8%; in test [3], -11.3%; in test [4] it was -23.4%; in test [5], -19%.
`CC1CCCC(NC(=O)C2(C)Cn3c(cc4occc43)C(=O)N2Cc2cccc(F)c2)C1C` (stereo unspecified): the activity change, negative = inhibition in test [1] is -6.62%; in test [2] it was 2.19%; in test [3], -4.19%; in test [4] it was -1.18%; in test [5] it was -3%.
Turning to `CCc1nc2c(sc3nc4c(cc32)COC(C)(C)C4)c(=O)n1Cc1ccco1`, the values for the activity change, negative = inhibition in test [2], in test [4] and in test [5] were -11%, -22.5% and -9.27%, respectively.
With `COCCNC(=O)[C@H]1C[C@H](Oc2cccnc2)CN1S(=O)(=O)c1cn(C)cn1`, the activity change, negative = inhibition was -0.878% in test [1]; -0.962% in test [2]; -0.062% in test [3]; 1.51% in test [4]; 4.51% in test [5].
Consider `CC1=CC(=O)C(C(C)C)=CC1=O`, for which the activity change, negative = inhibition in test [2] is 9.67%; in test [4] it was -1.67%; in test [5], 7.07%.
On to `O=C(O)CC[C@@H]1CN(C(=O)c2ccc(CO)o2)CC[C@@H]1N1CCOCC1`, for which the activity change, negative = inhibition in test [1] is -4.18%; in test [2] it was -4.32%; in test [3] it was -4.41%; in test [4] it was 0.234%; in test [5] it was -7.43%.
Consider `Cc1cc(C)cc(NC(=O)Cn2nc3n(C(C)C)c(=O)c4ccc(C(=O)NCC(C)C)cc4n3c2=O)c1`, for which the activity change, negative = inhibition in test [1] amounted to 1.95%; in test [2], 0%; in test [3], 5.58%; in test [4], 2.64%; in test [5], 6.14%.
As for `Cc1ccc(CNC(=O)N2CCCC(CN3CCC(C)CC3)CC2)cc1` (stereo unspecified), the activity change, negative = inhibition in test [1] was 0.313%; in test [2], 0.545%; in test [3], -7.04%; in test [4] it was -1.47%; in test [5], -1.39%.
